Laboratory results as given in US20220304309A1, “IRON COMPLEXES AND USES THEREFOR” (priority 2019, published 2022).

Tests used:
X. campestris = details: preincubation 24 hours with 5 mM ascorbate + 5 μM Cu(II); for CFU: 36 hour treatment; for A600: further 36 hours
Fusarium oxysporum = assay: Growth inhibition of F. oxysporum on agar plates (paper discs); details: paper discs with various concentrations, in the presence and absence of H2O2
Method: The ability of ferrous complexes to inhibit growth of F. oxysporum is tested by culturing the fungus on agar plates and placing small paper discs saturated with various concentrations of ferrous complex on the plate, in the presence and absence of H2O2.

chlorotic orange tree = assay: Reversal of chlorosis in an orange tree after foliar application; details: single foliar application of approximately 1 liter of 50 μM solution; after three months
Method: FIG. 4 is a photograph of a chlorotic orange tree approximately three months after application of one liter of a 50 μM solution of ferrous di-pyruvate. Dried, stunted chlorotic leaves are visible at the left of the photograph; while new growth; characterized by shiny, bright-colored leaves; is visible at the bottom and at the right of the photograph.
Chlorosis was induced in an orange tree by long-term neglect over a period of five years. The chlorotic tree was treated with a single foliar application of approximately 1 liter of a 50 μM solution of ferrous di-pyruvate, sprayed onto the undersides of the leaves.

[1] = addition 5 mM ascorbate + 0.25 mM FDP

O=C1O[C@H]([C@@H](O)CO)C([O-])=C1O.[Na+] [ascorbate, sodium ascorbate, reference compound]
CFU (X. campestris; addition 5 mM ascorbate): 5.6 × 10^11
A600 (X. campestris; addition 5 mM ascorbate): 0.519

O=C([O-])CC(O)(CC(=O)[O-])C(=O)[O-].O=C([O-])CC(O)(CC(=O)[O-])C(=O)[O-].[Fe+2].[Fe+2].[Fe+2] [tri-ferrous di-citrate]
Growth of F. oxysporum (Fusarium oxysporum): inhibited

ferrous di-pyruvate
Reversal of chlorosis (new growth) (chlorotic orange tree): new growth of large, shiny, brightly-colored leaves
Growth of F. oxysporum (Fusarium oxysporum): inhibited
A600 (X. campestris; addition 0.25 mM FDP): 0.320
CFU (X. campestris; [1]): 1.05 × 10^7 CFU per ml
A600 (X. campestris; [1]): 0.218

Read-outs that look alike come from different tables or passages of the source.
